# Assay results as given in PubChem BioAssay AID588855 (National Center for Advancing Translational Sciences (NCATS), 2011).
# About 5,000 (1.2%) of roughly 410,000 compounds were called active. Inconclusive means that the source gave no clear call. Such entries were picked first, then a sample of the others. Calls follow the shape of the dose curve; as a rule, active = well fitted inhibition curve with a large enough effect; inconclusive = small, poorly fitted or top-dose-only effect; inactive = no such curve, though single readings can be large or run the other way. Potencies of inconclusive entries are doubtful fits and often do not repeat.
# Test: qHTS for Inhibitors of TGF-b; also: nearly all actives have a fitted effect of over 65% in size
# Settings: HepG2 CAGA-GFP TGF-b/SMAD3 reporter, GFP fluorescence, 18 h, TGF-beta stimulated, 500 pg/mL final; series mostly up to 46.1 µM; activity, negative = inhibition: at the top concentration
# Method in brief: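 HEPG2 CAGA-GFP, 1000 cells/well; 2 h settle, 37 C; cpd via pin tool; TGF-b 500 pg/mL final; 18 h, 37 C; GFP imaging ex488/em500-530; %Activity normalised to -TGF-b and +DMSO controls; CRC fit, curve class.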
# % is scaled to controls: 0 for no effect and ±100 for the full control effect; potency is read from the fitted curve at half-maximal effect; tags tell the direction and shape of the fitted curve.
SMILES,"activity, negative = inhibition",Potency
O=C(c1ccccc1)c1ccc(Sc2ccc([N+](=O)[O-])cc2)cc1,inactive: -4.7%,–
COc1ccc(Nc2nc(N)nc(CSc3nc4cc(OC)ccc4s3)n2)cc1,–,"inconclusive: 15.8 µM [inhibitor, single point]"
O=C(c1cccc(F)c1)N1CCN(C(=O)c2cc(-c3ccc(Cl)cc3Cl)on2)CC1,–,"inconclusive: 11.2 µM [inhibitor, partial curve, poor fit]"
C[C@H](NC(=O)c1nc[nH]c1C(=O)N1CCc2ccccc2C1)C(=O)OCc1ccccc1,–,"inconclusive: 10 µM [inhibitor, partial curve, poor fit]"
COc1cccc2c1NC(C(=O)O)C1CC=CC21 (stereo not given),–,"inconclusive: 6.31 µM [inhibitor, single point]"
CCCCNS(=O)(=O)c1cccc(NC(=O)[C@@H]2O[C@H](CO)[C@H](O)[C@H](O)[C@H]2O)c1,inactive: -0.427%,–
CC1CC(C)CN(C(=O)C2CCN(S(=O)(=O)c3cccs3)CC2)C1 (stereo not given),–,"inconclusive: 35.5 µM [inhibitor, single point]"
Cc1ccc(-c2csc3ncnc(N4CCN(S(=O)(=O)c5cccs5)CC4)c23)cc1,inactive: -9.36%,–
NC(Cc1ccc(F)cc1)c1csc(Nc2nccc(C(F)(F)F)n2)n1 (stereo not given),–,"inconclusive: 35.5 µM [inhibitor, single point]"
O=C(CSCc1cnn(-c2ccccc2)c1-n1cccc1)Nc1ccc(F)cc1F,–,"inconclusive: 25.1 µM [inhibitor, single point]"
Cc1ccc(-c2ccc(/C=N\NC(=O)c3cc4c(ccc5ccccc54)o3)o2)cc1[N+](=O)[O-],inactive: 0%,–
C/C(=N\NC(=O)c1ccc(Cl)cc1)c1cccnc1,inactive: 0%,–
Cc1ccc(CNC(=O)c2c(-c3cccc(Br)c3)noc2C)o1,inactive: 0.954%,–
Cc1ccc(C)c(Cn2nc(C)n3c(cc4cc(C)ccc43)c2=O)c1,–,"inconclusive: 1.12 µM [inhibitor, full curve, poor fit]"
CCCCCn1c(=N)n(CC(O)COc2cccc(C)c2)c2ccccc21 (stereo not given),–,"inconclusive: 22.4 µM [inhibitor, single point]"
CCn1c(C)c(C)c2cc(C(=O)N3CCc4ccccc4C3)ccc21,–,"inconclusive: 22.4 µM [inhibitor, partial curve, poor fit]"
O=C(NCCc1nc2ccccc2[nH]1)c1cccc(Br)c1,inactive: 0.125%,–
CCCCNCC1C(Oc2ccc(Cl)cc2)C(=O)N1c1ccccc1C (stereo not given),–,active: 14.1 µM
CCN(CC)S(=O)(=O)c1ccc2oc(C(=O)NCCN3CCOCC3)c(C)c2c1,–,"inconclusive: 0.251 µM [inhibitor, partial curve, poor fit]"
CN(C)/N=C/c1ccc(/C=N/NC(N)=S)o1,inactive: -2.07%,–

SMILES,"activity, negative = inhibition",Potency
CC1CC(C)CN(C(=O)c2cc3c(=O)n4ccccc4nc3s2)C1 (stereo not given),–,"inconclusive: 25.1 µM [inhibitor, single point]"
Cc1ccc(C)c(N2CCN(C(=O)C(C)n3c(C)c4cnn(-c5ccccc5)c(=O)c4c3C)CC2)c1 (stereo not given),–,"inconclusive: 0.112 µM [inhibitor, full curve, poor fit]"
COc1ccc(C(=O)N/N=c2\oc3ccccc3cc2C(=O)NCc2ccccc2)cc1,–,"inconclusive: 11.2 µM [inhibitor, single point]"
COc1ccccc1C1C=C(c2ccc(Cl)cc2)Nc2nc(-c3ccc(Cl)cc3)nn21 (stereo not given),–,"inconclusive: 12.6 µM [inhibitor, partial curve, poor fit]"
C/C(=N\NC(=O)CSCc1ccc([N+](=O)[O-])cc1)c1ccccc1O,–,"inconclusive: 6.31 µM [inhibitor, partial curve]"
O=C(N/N=C\c1cccc(Cl)c1)c1ccc(Cn2cc(Br)c([N+](=O)[O-])n2)o1,–,"inconclusive: 15.8 µM [inhibitor, single point]"
O=C(O)c1ccc(NC2=C/C(=N/S(=O)(=O)c3ccccc3)c3ccccc3C2=O)cc1,–,active: 5.62 µM
CCOC(=O)c1ccc(OC(=O)c2cn(-c3cccc(OC)c3)c(=O)c3ccccc23)cc1,inactive: 39.3%,–
COc1ccc2[nH]c(C)c(C(=O)CNc3nccs3)c2c1,inactive: 8.21%,–
CC(C)CCN(C(=O)Nc1ccc(Cl)c(Cl)c1)C(C)c1cccs1 (stereo not given),–,"inconclusive: 0.282 µM [inhibitor, full curve, poor fit]"
C#CCOCCOCCOCCNc1nc(N2CCN(C(=O)[C@H](CCC(=O)O)n3cc(C(N)Cc4ccc(O)cc4)nn3)CC2)nc(N2CCN(C(=O)[C@H](Cc3cc4ccccc4[nH]3)n3cc(C(N)[C@H](C)CC)nn3)CC2)n1 (stereo not given in full),–,"inconclusive: 15.8 µM [inhibitor, single point]"
COc1ccc(C2CC(=O)Oc3cc4c(cc32)OCO4)cc1 (stereo not given),–,"inconclusive: 2 µM [inhibitor, full curve, poor fit]"
CN(C)CCCNC(=O)C[C@H]1C[C@H](C(=O)N2CCCCC2)[C@@]2(CCc3ccccc3)c3[nH]c4cc(-c5ccco5)ccc4c3CCN2C1=O,–,"inconclusive: 25.1 µM [inhibitor, single point]"
COCC(C)n1c(SCC(=O)NC(=O)NCc2ccccc2)nc2ccccc2c1=O (stereo not given),–,"inconclusive: 0.112 µM [inhibitor, full curve, poor fit]"
CC1CCN(C2=C(NS(=O)(=O)c3ccccc3)C(=O)c3ccccc3C2=O)CC1,–,"inconclusive: 35.5 µM [inhibitor, single point]"
Nc1nonc1-n1nnc(C(=O)c2ccccc2)c1-c1ccccc1,–,"inconclusive: 35.5 µM [inhibitor, single point]"
CCOc1cccc(CN(C)CC2CCCN(CCc3ccc(Cl)cc3)C2)c1O (stereo not given),–,"inconclusive: 35.5 µM [inhibitor, single point]"
COc1ccc(NC(=O)COC(=O)c2ccc(S(=O)(=O)N(C)c3ccccc3OC)cc2)cc1,inactive: 0.51%,–
CN1CCN(C(=S)c2ccc(-c3cccc([N+](=O)[O-])c3)o2)CC1,–,"inconclusive: 35.5 µM [inhibitor, partial curve, poor fit]"
CCN(Cc1ccccc1)S(=O)(=O)c1ccc(C(=O)N2CCN(c3nc4ccccc4s3)CC2)cc1,inactive: -21.2%,–
